{"source": "PubChem BioAssay AID1347043", "about": "(National Center for Advancing Translational Sciences (NCATS), 2019)", "note": "In all, about 76,000 compounds went through this assay and about 1,900 (2.5%) were called active. Inconclusive means that the source gave no clear call. Such entries were picked first, then a sample of the others. The call rests on the fitted dose curve; in most records, active means well fitted inhibition curve with a large enough effect; inconclusive means small, poorly fitted or top-dose-only effect; inactive means flat fitted curve, though single readings scatter. Where the call is inconclusive, the potency comes from a doubtful curve fit. Potency means the concentration at half of the fitted maximal effect; tags describe the fitted curve by direction and shape.", "data": [{"target": "Luciferin 4-monooxygenase (Photinus pyralis) (UniProt P08659)", "sequence (P08659 whole entry, looked up)": "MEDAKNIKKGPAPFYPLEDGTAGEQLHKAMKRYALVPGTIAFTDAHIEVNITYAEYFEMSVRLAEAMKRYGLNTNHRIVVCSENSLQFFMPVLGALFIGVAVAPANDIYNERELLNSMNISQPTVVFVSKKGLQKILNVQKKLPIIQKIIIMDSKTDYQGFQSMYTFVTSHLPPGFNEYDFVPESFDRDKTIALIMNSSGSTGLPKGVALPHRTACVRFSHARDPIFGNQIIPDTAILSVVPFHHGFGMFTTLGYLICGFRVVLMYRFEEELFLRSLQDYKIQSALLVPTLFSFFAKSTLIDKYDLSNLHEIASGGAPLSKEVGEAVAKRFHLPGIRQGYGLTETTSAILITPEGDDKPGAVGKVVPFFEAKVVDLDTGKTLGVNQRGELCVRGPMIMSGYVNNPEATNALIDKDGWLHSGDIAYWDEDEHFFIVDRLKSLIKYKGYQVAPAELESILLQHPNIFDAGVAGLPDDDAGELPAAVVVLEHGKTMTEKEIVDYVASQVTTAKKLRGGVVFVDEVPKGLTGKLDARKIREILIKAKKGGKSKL", "test": "Firefly luciferase inhibition profiling of diverse chemical library using quantitative high-throughput screening; further: nearly all actives have a fitted effect of over 65% in size", "conditions": "purified P. pyralis luciferase, luminescence, biochemical; series mostly up to 115 µM", "procedure,_shortened": "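Cell-free enzyme assay, 10nM P. pyralis luciferase, luciferin and ATP each at 10uM. Inhibition profiled over a 6-point titration, read as luminescence.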", "values": [{"smiles": "Cc1ccc(-c2ccc3c(n2)CN(C)C(=O)CO3)cc1", "Potency": "active: 89.1 µM"}, {"smiles": "COc1ccc(C(=O)C2CCCN(Cc3csc(C(C)=O)c3)C2)c(OC)c1", "note": "(stereo not given)", "Potency": "inactive"}, {"smiles": "CCC(C)N1Cc2cc(NC(=O)c3ccc([N+](=O)[O-])cc3)ccc2OCC1=O", "note": "(stereo not given)", "Potency": "inconclusive: 50.1 µM [inhibitor, partial curve, poor fit]"}, {"smiles": "O=C(NCCc1noc(-c2ccncc2)n1)c1n[nH]c2c1CCCCCC2", "Potency": "inconclusive: 56.2 µM [inhibitor, partial curve, poor fit]"}, {"smiles": "c1ccc(CN2CC[C@H](c3nnc(-c4ccco4)o3)C2)nc1", "Potency": "inconclusive: 100 µM [inhibitor, partial curve, poor fit]"}, {"smiles": "O=C(NCCc1ccccn1)c1ccc2c(c1)OCCN(c1ccccc1)C2", "Potency": "inconclusive: 70.8 µM [inhibitor, partial curve, poor fit]"}, {"smiles": "Cc1ccc(NC(=O)c2ccc3c(c2)N(C)C2CCCCCN2C3=O)cc1C", "note": "(stereo not given)", "Potency": "inconclusive: 31.6 µM [inhibitor, partial curve]"}, {"smiles": "COc1nc2nc(CCc3ccccc3)n(C)c2cc1-c1ccc(CO)cc1", "Potency": "inconclusive: 70.8 µM [inhibitor, partial curve]"}, {"smiles": "O=C(N[C@H]1CCN2C(=O)c3cc(/C=C/c4ccc(O)cc4)ccc3NC(=O)[C@H]12)c1cnccn1", "Potency": "active: 12.6 µM"}, {"smiles": "CC(C)c1ccc(N2C(=O)N[C@@H]3CCN(C(=O)c4ccc(C(C)(C)C)cc4)[C@@H]3C2=O)cc1", "Potency": "inconclusive: 79.4 µM [inhibitor, partial curve]"}, {"smiles": "Cc1ccccc1-c1cc(O)c2c(c1)CN(Cc1ccoc1)CCO2", "Potency": "inactive"}, {"smiles": "Cc1cc(Cl)ccc1NC(=O)N1C[C@H](c2nc(-c3cccnc3)no2)[C@@H](C)C1", "Potency": "inactive"}, {"smiles": "CC(C)Oc1cccc(-c2nc(C(=O)Nc3ccc(F)cc3)cs2)c1", "Potency": "inconclusive: 35.5 µM [inhibitor, partial curve]"}, {"smiles": "Cc1cccc(NC(=O)c2ccc3c(c2)N(C)C2CCCCCN2C3=O)c1", "note": "(stereo not given)", "Potency": "active: 35.5 µM"}, {"smiles": "CC(=O)Oc1c(-c2ccc(NC(=O)c3ccco3)cc2)c(-c2cccc(C)c2)nn1-c1ccc(F)cc1", "Potency": "inconclusive: 44.7 µM [inhibitor, partial curve]"}, {"smiles": "O[C@H]1CC[C@@H](Cc2cc(COc3ccccc3)on2)O[C@@H]1CN(CC1CC1)CC1CC1", "Potency": "inactive"}, {"smiles": "CCOC(=O)c1cccc(NC(=O)c2ccc3c(c2)N(C)C2CCCCN2C3=O)c1", "note": "(stereo not given)", "Potency": "inconclusive: 35.5 µM [inhibitor, full curve]"}, {"smiles": "O=C(Cn1nc2c(cc1=O)CCCCC2)NC1CCCC1", "Potency": "inconclusive: 56.2 µM [inhibitor, partial curve]"}, {"smiles": "CC(=O)c1ccc(NC(=O)Cn2c(-c3ccc(Cl)cc3)nc(C)cc2=O)cc1", "Potency": "inactive"}, {"smiles": "Cc1ccc(NC(=O)N2CCC(CCNC(=O)Cc3ccsc3)CC2)cc1F", "Potency": "inconclusive: 44.7 µM [inhibitor, partial curve]"}, {"smiles": "Cc1cc(C(=O)NCC2Cn3cccc3CN2Cc2ccccc2)n[nH]1", "note": "(stereo not given)", "Potency": "inconclusive: 11.2 µM [inhibitor, partial curve, poor fit]"}, {"smiles": "O=C(O)c1cccc(CC2CCN(C(=O)C3CCC(O)CC3)C2)c1", "note": "(stereo not given)", "Potency": "inconclusive: 44.7 µM [inhibitor, partial curve]"}, {"smiles": "C[S+](=O)([O-])CCn1ncc2cc(OCc3cccc(-c4ccoc4)c3)ccc21", "Potency": "inconclusive: 15.8 µM [inhibitor, full curve, poor fit]"}, {"smiles": "Cc1cccc(NC(=O)N2CCC3(CC2)SCC(=O)N3Cc2ccco2)c1", "Potency": "inconclusive: 44.7 µM [inhibitor, partial curve]"}, {"smiles": "COCCOC1CCOC2(CCN(C(=O)CCCc3ccccc3)CC2)C1", "note": "(stereo not given)", "Potency": "active: 28.2 µM"}, {"smiles": "Cc1ccc(-c2cc3c(=O)n(CCNC(=O)C4CCCCC4)ccn3n2)cc1C", "Potency": "active: 0.631 µM"}, {"smiles": "CC(C)NC(=O)Cn1ccn2nc(-c3ccc(F)cc3)c(CO)c2c1=O", "Potency": "inactive"}, {"smiles": "Fc1ccccc1CN1CCNc2cc(Nc3ccccc3)ncc2C1", "Potency": "active: 20 µM"}, {"smiles": "COCCN1Cc2ccc(NCC(C)C)nc2C(C)(C(=O)Nc2ccc(OC)cc2)C1", "note": "(stereo not given)", "Potency": "inconclusive: 126 µM [inhibitor, partial curve, poor fit]"}, {"smiles": "O=C(NCc1ccccc1)C1CCC(=O)N1C1CCN(C(=O)c2cc(F)cc(F)c2)CC1", "note": "(stereo not given)", "Potency": "inactive"}, {"smiles": "O=C(NCc1cccnc1)[C@@H]1C[C@@H](O)CN1C1CCN(C(=O)c2cc3ccccc3[nH]2)CC1", "Potency": "inconclusive: 2.51 µM [inhibitor, full curve]"}, {"smiles": "CC(C)N1C[C@H](O)C[C@H]1c1nc(-c2cccc([N+](=O)[O-])c2)no1", "Potency": "inconclusive: 79.4 µM [inhibitor, partial curve]"}, {"smiles": "COc1cccc(-c2cc3c(=O)n(CCNC(=O)c4ccccn4)ccn3n2)c1", "Potency": "inconclusive: 11.2 µM [inhibitor, full curve]"}, {"smiles": "COc1ccccc1-c1cn(C)c(=O)n2cc(COc3ccc(C(=O)O)cc3)nc12", "Potency": "inactive"}, {"smiles": "N#Cc1ccc(C(=O)Nc2ccc([C@H]3OCC(=O)N(Cc4cccnc4)[C@@H]3CO)cc2)cc1", "Potency": "inconclusive: 79.4 µM [inhibitor, single point]"}, {"smiles": "Cc1cc(C(=O)N2CC(=O)N(C3CCCCC3)CC(OCc3ccccc3)C2)n(C)n1", "note": "(stereo not given)", "Potency": "inactive"}, {"smiles": "c1cnc2nc(-c3c[nH]c4ncccc34)[nH]c2c1", "Potency": "active: 89.1 µM"}, {"smiles": "c1ccc(CCCN2CC[C@H](c3nc4ccccc4s3)C2)cc1", "Potency": "inconclusive: 70.8 µM [inhibitor, full curve, poor fit]"}, {"smiles": "CO[C@H]1C(=O)N(C(C)C)[C@H]1C1CCN(C(=O)c2cccc(C#N)c2)CC1", "Potency": "inactive"}, {"smiles": "N#Cc1ccc(C(=O)N2CCC(n3cc(-c4nc(-c5ccccc5)no4)nn3)CC2)cc1", "Potency": "inconclusive: 100 µM [inhibitor, single point]"}, {"smiles": "CN(C)C(=O)c1nc(-c2ccc(Cl)cc2)c2ccccn12", "Potency": "inconclusive: 89.1 µM [inhibitor, partial curve, poor fit]"}, {"smiles": "CN(C)c1cccc(C(=O)N2CCC(n3cc(-c4nc(C5CC5)no4)nn3)C2)c1", "note": "(stereo not given)", "Potency": "inconclusive: 100 µM [inhibitor, single point]"}, {"smiles": "COC[C@H]1CCCN1Cc1cn(Cc2ccccc2)nc1-c1cc2ccccc2o1", "Potency": "inconclusive: 50.1 µM [inhibitor, partial curve]"}, {"smiles": "Cc1nnsc1C(=O)N[C@H]1CCN2C(=O)N(c3ccc(C(C)C)cc3)C(=O)[C@@H]2C1", "Potency": "inconclusive: 70.8 µM [inhibitor, partial curve]"}, {"smiles": "Cn1cc(-c2cnc(Nc3cccc(C(F)(F)F)c3)c3c2CCO3)cn1", "Potency": "inconclusive: 70.8 µM [inhibitor, full curve]"}, {"smiles": "Cc1nn(-c2ccc(C(C)C)cc2)c(C)c1[C@@H]1C=C[C@@H](NCc2ccccc2)C1", "Potency": "active: 63.1 µM"}, {"smiles": "COc1ccc(OCC(=O)N2CCN(c3cc(-c4ccccc4)[nH]n3)CC2)cc1", "Potency": "inconclusive: 50.1 µM [inhibitor, partial curve, poor fit]"}, {"smiles": "O=C(NCCc1ccccc1)c1ccc2c(c1)OCCN(c1ccccc1)C2", "Potency": "inconclusive: 20 µM [inhibitor, full curve]"}, {"smiles": "COc1ncccc1-c1cccc(CCOc2cnc3c(ccn3CC(=O)O)c2)c1", "Potency": "inconclusive: 126 µM [inhibitor, single point]"}, {"smiles": "O=C(Nc1cnc(-c2ccc(F)cc2)nc1)c1ccco1", "Potency": "active: 3.55 µM"}, {"smiles": "Cc1cccc(CN2CCNc3cc(-c4ccnc(C)c4)ncc3C2)c1", "Potency": "inconclusive: 89.1 µM [inhibitor, partial curve, poor fit]"}, {"smiles": "COc1cc(Cl)ccc1C(=O)N1CCC2(CC1)NC(=O)N(c1ccc(F)cc1)N2", "Potency": "inactive"}, {"smiles": "CCc1ccc(NC(=O)C2CCN(C(=O)c3ncn4c3COC(c3ccccc3)C4)CC2)cc1", "note": "(stereo not given)", "Potency": "active: 5.01 µM"}, {"smiles": "CCCNc1cc(N2CCC(CCC(=O)Nc3cc(C)ccc3C)CC2)ncn1", "Potency": "inconclusive: 56.2 µM [inhibitor, partial curve]"}, {"smiles": "O=C(c1ccoc1)N1CCCC(n2cc(-c3nc(-c4ccccc4)no3)nn2)C1", "note": "(stereo not given)", "Potency": "inconclusive: 39.8 µM [inhibitor, partial curve]"}, {"smiles": "COc1ccc(-c2noc(-c3nc(C(C)C)no3)n2)cc1", "Potency": "active: 11.2 µM"}, {"smiles": "C=CCNC(=O)Nc1nc2c(s1)C[C@]1(C)CC[C@@H]3[C@H](OC(=O)[C@H]3C)[C@H]1[C@@H]2C", "Potency": "active: 15.8 µM"}, {"smiles": "c1cncc(Nc2cc3c(cn2)CN(Cc2ccc4[nH]ccc4c2)CCN3)c1", "Potency": "active: 39.8 µM"}, {"smiles": "COCC(=O)N1CCCC(C(=O)N(C)CCn2ccnc2C)C1", "note": "(stereo not given)", "Potency": "inconclusive: 79.4 µM [inhibitor, single point]"}, {"smiles": "COc1ccc(C2Cn3cnc(C(=O)N4CCC(C(=O)Nc5cc(F)cc(F)c5)CC4)c3CO2)cc1", "note": "(stereo not given)", "Potency": "inconclusive: 39.8 µM [inhibitor, partial curve]"}, {"smiles": "COc1ccc(NC(=O)Cn2c(C)ccc(NS(=O)(=O)c3ccccc3)c2=O)cc1", "Potency": "inactive"}, {"smiles": "COc1ccc(C2Cn3cnc(C(=O)N4CCC(C(=O)Nc5ccc(F)cc5C)CC4)c3CO2)cc1", "note": "(stereo not given)", "Potency": "inconclusive: 44.7 µM [inhibitor, partial curve]"}, {"smiles": "CN1c2cc(C(=O)NC3CCCCCC3)ccc2C(=O)N2CCCCCC21", "note": "(stereo not given)", "Potency": "inconclusive: 50.1 µM [inhibitor, partial curve]"}, {"smiles": "OCc1cccc(-c2ccc3ncc(Nc4ccccc4F)n3n2)c1", "Potency": "inconclusive: 50.1 µM [inhibitor, partial curve]"}, {"smiles": "COCCn1cnc2ccc(-c3cccc(C)c3)nc2c1=O", "Potency": "inconclusive: 126 µM [inhibitor, partial curve, poor fit]"}]}]}
